Measured values from the supplement of paper PMC10126150.
Values marked as one replicate rest on one cluster of the flow cell; about a third of the high ones do not repeat.

These sequences were tested on ATP (assay: switch fluorescence ratio, 500 uM ATP over buffer (Cy3 cluster intensity, sum of 5 cycles each) (fold (ratio)); higher = stronger signal-on switching upon ATP binding; sequences stand for … in TCGTCGGCAGCGTCAGATGTGTATAAGAGACAGTTTTTTTTTTTTTTTTTTTTTTTTT…TC). Settings: aptamer strand: ATP DNA aptamer (quencher-CACCTGGGGGAGTATTGCGGAGGAAGG + anchor), 100 nM annealed; ATP concentration: 500 uM; one replicate.
In short: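 The fluorescence ratio divides summed target-cycle Cy3 intensity by summed buffer-cycle Cy3 intensity for each cluster and is averaged per switch-domain sequence. Cy3-labelled switching-strand clusters on a modified Illumina MiSeq flow-cell were annealed to 100 nM quencher-labelled ATP aptamer, then imaged in selection buffer and again after 15 min with 500 uM ATP at 22 °C. Five such cycles were run, with NaOH stripping and re-annealing between them, and clusters outside 100-1000 RFU were excluded.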
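Note: ATP exposure 15 min at 22 °C before imaging.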

| Sequence | switch fluorescence ratio |
| --- | --- |
| GAAAAAGTC | 1.01 |
| GAAAAATGTG | 0.996 |
| GAAAACAATT | 1.04 |
| GAAAACGTTC | 0.96 |
| GAAAAGCGAG | 0.943 |
| GAAAAGCTTA | 0.99 |
| GAAAATAAAT | 1.01 |
| GAAAATATAT | 0.999 |
| GAAAATCGAG | 1 |
| GAAAATCTGG | 1.02 |
| GAAAATGATC | 1.06 |
| GAAACAGCCC | 1.1 |
| GAAACCACCA | 1.04 |
| GAAACGCAGG | 0.97 |
| GAAAGAATCT | 0.976 |
| GAAAGAGTGG | 0.985 |
| GAAAGATTG | 1.06 |
| GAAAGCAGTG | 0.972 |
| GAAAGCTGTA | 0.983 |
| GAAAGGCCGG | 1.01 |
| GAAAGGGTCG | 0.909 |
| GAAAGGGTGC | 1.1 |
| GAAAGTAATC | 1.05 |
| GAAAGTAGCC | 0.982 |
| GAAAGTATGG | 0.979 |

| Sequence | switch fluorescence ratio |
| --- | --- |
| GAAAGTCAAC | 1.02 |
| GAAATAAGA | 1.01 |
| GAAATACTAG | 1.05 |
| GAAATAGAGC | 0.932 |
| GAAATAGAGG | 0.998 |
| GAACAAAAGG | 1.03 |
| GAACAAAGCC | 1.04 |
| GAACAAGATC | 1.05 |
| GAACAAGCGG | 1.04 |
| GAACACATTT | 1.04 |
| GAACAGATTG | 0.988 |
| GAACAGTGTT | 1.01 |
| GAACATCCTT | 1.08 |
| GAACATGGCA | 0.969 |
| GAACCAGGTA | 1.14 |
| GAACCATTAT | 1.02 |
| GAACCCCTTT | 1.07 |
| GAACCGCATT | 2.55 |
| GAACCGCGTT | 1.01 |
| GAACCTGTG | 0.992 |
| GAACCTTCGG | 1.05 |
| GAACGAACCG | 0.996 |
| GAACGCAGTT | 0.983 |
| GAACGCCTAG | 1.01 |
| GAACGCGACT | 1.5 |

| Sequence | switch fluorescence ratio |
| --- | --- |
| GAACGGACGC | 1.11 |
| GAACGGCGGC | 0.999 |
| GAACGGGCTT | 0.982 |
| GAACGTTCTG | 0.999 |
| GAACTACGCG | 1.19 |
| GAACTACTGG | 1.07 |
| GAACTCTAAA | 1.02 |
| GAACTGTTAG | 0.998 |
| GAAGAAAGAA | 0.999 |
| GAAGAAGATA | 0.953 |
| GAAGAAGCGG | 0.999 |
| GAAGAGAGTA | 1 |
| GAAGAGGATA | 0.965 |
| GAAGATGTAA | 1.01 |
| GAAGCACGGC | 1.19 |
| GAAGCACTAT | 1.86 |
| GAAGCAGGTG | 2.7 |
| GAAGCATTGA | 1.31 |
| GAAGCGTGGT | 0.984 |
| GAAGCTGCTA | 1.03 |
| GAAGCTGTTG | 1.03 |
| GAAGCTTAAG | 1 |
| GAAGGAAAAA | 1.41 |
| GAAGGAACAG | 1.03 |
| GAAGGACCGT | 1.03 |

| Sequence | switch fluorescence ratio |
| --- | --- |
| GAAGGACGGA | 1.01 |
| GAAGGACTGC | 0.958 |
| GAAGGAGTAC | 1.06 |
| GAAGGGAATT | 0.946 |
| GAAGGGATCT | 1.01 |
| GAAGGGGCCA | 0.986 |
| GAAGGTAGCC | 1.01 |
| GAAGGTCGCA | 1.01 |
| GAAGTAGATG | 1.05 |
| GAAGTATATC | 1.07 |
| GAAGTATTAT | 1 |
| GAAGTCACCT | 0.992 |
| GAAGTCTCAT | 0.978 |
| GAAGTCTTTG | 1.02 |
| GAAGTGGGGA | 1.03 |
| GAAGTTATAT | 0.99 |
| GAAGTTGGG | 1.01 |
| GAAGTTTGTC | 1.03 |
| GAATAAACCC | 0.975 |
| GAATAAGGAC | 0.947 |
| GAATACAAAG | 1.03 |
| GAATACCGTT | 0.932 |
| GAATACCTGG | 1.03 |
| GAATAGAGAA | 1 |
| GAATAGCATG | 1.01 |

| Sequence | switch fluorescence ratio |
| --- | --- |
| GAATATAGTC | 1.05 |
| GAATCCGAGG | 1.04 |
| GAATCCTGGT | 0.963 |
| GAATCGCGGA | 0.98 |
| GAATCTGGAC | 1.04 |
| GAATCTGTAT | 1.01 |
| GAATGAGCAG | 1.03 |
| GAATGAGCGA | 1.02 |
| GAATGAGGAG | 0.965 |
| GAATGAGGAT | 1.01 |
| GAATGATGCA | 0.953 |
| GAATGCACGG | 1 |
| GAATGCAGG | 0.946 |
| GAATGGTACA | 0.999 |
| GAATGGTTTA | 0.979 |
| GAATGTCATC | 0.972 |
| GAATGTGTAT | 0.985 |
| GAATGTTATG | 1 |
| GAATTAGGT | 1.02 |
| GAATTAGTCC | 0.986 |
| GAATTATGTC | 1.03 |
| GAATTCCATT | 0.993 |
| GAATTCCTAA | 0.977 |
| GAATTGTCGT | 0.977 |
| GAATTTCGT | 1.01 |

| Sequence | switch fluorescence ratio |
| --- | --- |
| GACAAATTAA | 1.05 |
| GACAACAG | 1.02 |
| GACAACAGAA | 1.04 |
| GACAACAGGT | 1.36 |
| GACAACATGG | 1.06 |
| GACACCGTTC | 1.07 |
| GACACGCTTA | 1.06 |
| GACACTCTTT | 0.966 |
| GACAGAAAGG | 0.995 |
| GACAGACCCT | 1.11 |
| GACAGCGAAG | 0.971 |
| GACAGCGGTC | 1.08 |
| GACAGGAGTG | 0.964 |
| GACAGGTGGC | 1.48 |
| GACAGTACTC | 1.56 |
| GACAGTCTGA | 0.992 |
| GACAGTTTGG | 1.48 |
| GACATCGTAA | 1.09 |
| GACATCTGGA | 1.04 |
| GACATGGCCT | 1.05 |
| GACATGGCTA | 0.98 |
| GACATGGTCC | 1.02 |
| GACATTCCGC | 1.62 |
| GACATTCGGT | 0.995 |
| GACATTTTGA | 0.998 |

| Sequence | switch fluorescence ratio |
| --- | --- |
| GACCAAGTG | 0.961 |
| GACCAATTAG | 1.01 |
| GACCAGGATT | 0.988 |
| GACCATAGCG | 1.11 |
| GACCATATCG | 1.02 |
| GACCATGGCT | 0.984 |
| GACCATGTTC | 1.02 |
| GACCATTGCG | 0.969 |
| GACCCACGGA | 1.01 |
| GACCCCTAAC | 1.11 |
| GACCGCGTCT | 1.06 |
| GACCGCTAA | 1.87 |
| GACCGGCTTT | 1.03 |
| GACCGGGAGT | 0.976 |
| GACCGGGCGT | 0.994 |
| GACCGTGGCC | 1.05 |
| GACCTCAAAT | 0.964 |
| GACCTCATCG | 1.02 |
| GACCTCCCAC | 2.55 |
| GACCTCTAGC | 1.04 |
| GACCTGGGAA | 1.08 |
| GACGAAATGT | 1.21 |
| GACGAACGGG | 1.28 |
| GACGAATTGT | 1 |
| GACGACCGCT | 2.26 |

| Sequence | switch fluorescence ratio |
| --- | --- |
| GACGACCGTT | 1.2 |
| GACGACGGTC | 1.21 |
| GACGACGTAC | 3.03 |
| GACGAGTATA | 1.07 |
| GACGATATAC | 4.06 |
| GACGATGTAT | 1.09 |
| GACGATGTGC | 1.5 |
| GACGATGTGT | 0.992 |
| GACGCAACT | 3.52 |
| GACGCACAGG | 1.58 |
| GACGCCGTG | 1.01 |
| GACGCTCTAA | 1.6 |
| GACGCTCTTC | 1.04 |
| GACGCTGTCT | 1.02 |
| GACGGACTGC | 1.16 |
| GACGGCAGTC | 1.01 |
| GACGGCGCCA | 1.03 |
| GACGGGCTAG | 0.983 |
| GACGGTCAGC | 1.04 |
| GACGTAGGTG | 1.02 |
| GACGTATACA | 1.16 |
| GACGTATATC | 1.94 |
| GACGTCGTAA | 1.08 |
| GACGTCTGAT | 0.977 |
| GACGTCTTA | 0.993 |
